In patent publication EP4703390A1 (Chia Tai Tianqing Pharmaceutical Group Co., Ltd., dated 2026):

Target: T1, cynomolgus c-Met-His (SinoBiological, Cat. No. 90304-C08H) (cynomolgus, UniProt A0A2K5UM36 25-932)
T1 construct: Bought protein; also called cynomolgus c-Met protein
Experiment: SPR (Biacore), antibody captured on anti-hIgG Fc chip, c-Met-His as analyte, 1:1 fit

B1: 1B-3B11-Fc (Fc fusion)
chain: QVQLVESGGGSVQAGGSLRLSCVVSGYTYSSVAWFRQTPGKEREGVAVINPGGDNTDYTYAVKGRFTISRDSAKSTVFLQMNNLESEDTAMYYCAAGRTFGGTWMDRNKWKYWGQGTLVTVSSEPKIPQPQPKPQPQPQPQPKPQPKPEPEC[omitted - human IgG1 Fc with P228K (EU numbers)]
notes: also called anti-human c-Met VHH-Fc chimeric antibody 1B-3B11-Fc
  Kd: 664 pM

B2: 1B-1B2-Fc (Fc fusion)
chain: EVQLVESGGGSVQAGGSLRLSCTASGFTFDMGWYRQAPGDECELVSSISSDGNSDYLDSVKGRFTISQDNAKNTVYLQMNSLKPEDTAVYYCAANGAGHLVLRPLCGSNAVDAWGQGTLVTVSSEPKIPQPQPKPQPQPQPQPKPQPKPEPEC[omitted - human IgG1 Fc with P228K (EU numbers)]
notes: also called anti-human c-Met VHH-Fc chimeric antibody 1B-1B2-Fc
  Kd: 2740 pM

B3: 1B-1C7-Fc (Fc fusion)
chain: QVQLVESGGGLVQPGGSLRLSCAASGYSYSANCVGWFYQAPGKEREGVAAINTGGETATYADFVKGRFTISQDYAKNTVYLQMNSLKSEDTGMYYCAAVGTRKYWDECSLSQHAYKNWGQGTLVTVSSEPKIPQPQPKPQPQPQPQPKPQPKPEPEC[omitted - human IgG1 Fc with P228K (EU numbers)]
notes: also called anti-human c-Met VHH-Fc chimeric antibody 1B-1C7-Fc
  Kd: 188 pM

B4: 1B-1B6-Fc (Fc fusion)
chain: QVQLVESGGDSVQAGGSLRLSCAASAHAYSSGCMGWFRQAPGKGREGVATIYTRNDFTYYSDSVKGRFTISRDDAKNTVYLQVNSLKAEDTAMYYCAAGSPFRYAGAWNVCGLKEEDYNYWGQGTLVTVSSEPKIPQPQPKPQPQPQPQPKPQPKPEPEC[omitted - human IgG1 Fc with P228K (EU numbers)]
notes: also called anti-human c-Met VHH-Fc chimeric antibody 1B-1B6-Fc
  Kd: 6850 pM

B5: 3B-1C7-Fc (Fc fusion)
chain: QVQLVESGGDSVQAGGSLRLSCIASGFTFDGTTMGWYRQAPGDECELVSDISSDGNTYYSDSVKGRFTISQGNAKNTVYLQMNSLTPEDTAVYYCAAAEFRLLLRPLCRQDDYGYWGQGTLVTVSSEPKIPQPQPKPQPQPQPQPKPQPKPEPEC[omitted - human IgG1 Fc with P228K (EU numbers)]
notes: also called anti-human c-Met VHH-Fc chimeric antibody 3B-1C7-Fc
  Kd: 254 pM
